The source gives no read counts; variants with many changes may rest on few reads.

We go through 34 variants from the RNAGym collection of RNA variant scans (doi:10.1093/nar/gkz1192).

B1: CPEB3 Ribozyme (parent)
chain: UAACAGGGGGCCACAGCAGAAGCGUUCACGUCGCAGCCCCUGUCAGAUUCUGGUGAAUCUGCGAAUUCUGCUGUAUAUCUC

This data set covers variants of B1. The experiment in a line: self-cleavage, relative activity (ratio to wild type); higher = more cleavage; in vitro, sequencing. An outline of the steps:
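After error-prone PCR and barcoding, CPEB3 ribozyme mutant libraries were transcribed with T7 RNA polymerase at 37°C for 5 hours, then given 15 min with DNase I before an EDTA stop, and they cleaved during both steps. Reverse transcription with template switching preceded Illumina sequencing. Relative activity divides a variant's cleaved/total read fraction by the unmutated ribozyme's. At least 5 reads were required per variant, and three batches were averaged.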
Consider UAUCAGGGGGCCACAGCAGAAGCGUUCACGUCGCAGCCCCUGACAGAUUCUGGUGAAUCUGCGGAUUCUGCUGUAUAUCUC [A3U U43A A64G], for which the self-cleavage was found to be 0.76.
UAUCAGGGGGCCACAGCAGAAGCGUCCACGUCGCAGCCCCUGUCAGAUUCCGGUGAAUCAGCGAAUUCUGCUGUAUAUCAC [A3U U26C U51C U60A U80A]: the self-cleavage stood at 0.33.
For UAUCAGGGGGCCACAGCAGAAGCGUUCACGUCGCAGCCCCUGUCAGAUCCUGGUGAAUCUGCGUAUUCUGCUGUAUAUCCC [A3U U49C A64U U80C], the self-cleavage turned out to be 0.34.
Turning to UAAAAGGGGGCCACUGCAGAAGCGUUCACGUCACAGCCACUGUCAGGUUCUGGUGAAUCUGCGAAUUCUGCUGUAUAUCUC [C4A A15U G33A C39A A47G], the self-cleavage was found to be 0.09.
UAAAAGGGGACCACAGCAGAAGCGUUCACGACGCAGCCCCCGUCAGAUUCUGGUGAAUCUGCGAGUUCUGCUGUAUAUCUC [C4A G10A U31A U41C A65G]: the self-cleavage worked out at 0.08.
In the case of UAAAAGGGGGCCACAGCAGAAGCGUUCUCGUCGUAGCCCCUGUCAGAUUCUGGUGAAUCUGCGAAUUCUGCUGUAUACCUC [C4A A28U C34U U78C], the self-cleavage amounted to 0.15.
As for UAUCAGGGGGCCACAGCAGAAGCGUUCACGUCGCAGCCCCUGUCAGAUCCUGGUGAAUCUGCGAAUUCUGCAGUAUAUCCC [A3U U49C U72A U80C], the self-cleavage was 0.22.
Regarding UAUCAGGGGGCCACAGCAGAAGCGUUCACGUCGCAGCCCCUGUCAGACUCUGGUGAGUCUGCGAAUUCUGCCGUAUAUCUC [A3U U48C A57G U72C], the self-cleavage was 1.25.
With UAAAAGGGGGCCACUGCAGAAGCGUUCACGUCGCAGCCCCUGUCUGAUUCUGGUGAAUCUGCGAAUUCUGCUGUAUAUCUC [C4A A15U A45U] the figure was 0.38; with UAUCAGGGGGCCACAGCAGAAGCGUUCACGUCGCAGCCCCUGUCAGAUUCUGGUGAAUCAGCGAAUUCAGCUGUAUAUCUC [A3U U60A U69A], 0.41.
With UAAAAGGGGGCCACAGCAGAAGCGUUCGCGUCGCGGCCCCUGUCAGAUUCUGGUGAAUCUGCGAAUUCUGCUGUAUAUCUC [C4A A28G A35G] the figure was 1.27; with UAUCAGGGGGCCACAGCAGAAGCGUCCACGUCGCAGCCCCUGUCAGAUUCUGGUGAGUCUGCGAAUCCUGCUGUAUAUCUC [A3U U26C A57G U67C], 0.17.
To UAUCAGGGGGCCACAGCAGAAGCGUUCACGCCGCAGCCCCUGUCAGAUUCUGGUGAAUCUGCGAAUUCUGCUGUAUACCUC [A3U U31C U78C] belongs 0.99; to UAAAAGGGGGCCACAGCUGAAGCGUUCACGUCGCAGCCCCUGUCAGAUUCUGGUGAAUCUGCGAAUUCCGCUGUAUAUCUC [C4A A18U U69C], 0.53; to UAAAAGGGGGCCACAGCAGGAGCGUUCACGUCGCAGCCCCUGACAGAUUCUGGUGGAUCUGCGACUUCUGCUGUAUAUCUC [C4A A20G U43A A56G A65C], 0.13.
In the case of UAUCAGGGGGCCACAGCAGAAGCGUCCACGUCGCAGCCCCUGUCAGAUUCUGGUGAAUCAGCGAAUUCUGCUGUAUAUCUC [A3U U26C U60A], the self-cleavage was found to be 0.28.
With UAUCAGGGGGCCACAGCAGAAGCGUUCACGUCGCAGCCCCAGUCCGAUUCUGGUGAAUCUGCGAAUUCUGCAGUAUAUCUC [A3U U41A A45C U72A] the figure was 0.03.
With UAUCAGGGGGCCACAGCAGAAGCGUUCACGCCGCAGCCCCUGUCAGAUUCUUGUGUAUCUGCGAAUUCUGCUGUAUAUCUC [A3U U31C G52U A56U] the figure was 0.7.
To UAAAAGGGGGCCACAGCAGAAGCGUUCAGGUCGCAGCCCCUGUCAGAUUCUGGUGAAUCUGCGAAUUCUGCUGUAUACCUC [C4A C29G U78C] belongs 0.46; to UAAAAGGGGGCCACAGCAGAAGCGUUCACGUCGCAACCCCUGUCUGACUCUGGUGAAUCUGCGUAUUCUGCUGUAUAUCUC [C4A G36A A45U U48C A64U], 0.09; to UAAAGGGGGGCGACAGCUGAAGCGUUCAAGUCGCAGCCCCUGUCAGAUUCUGGUGAAUCUGCGAAUUCUGCUGUAUAUCUC [C4A A5G C12G A18U C29A], 0.23.
For the variant UAUCAGGGGGCCACAGCAGAAGCGUUCACGUCGCAGCCCCUGUCAGAUCCUGGUGGAUCUGCGAAUUAUGCUGUAUAUCUC [A3U U49C A56G C68A], the self-cleavage was found to be 0.38.
To UAAAAGGGGGCCACAGCAGAAGCGAUCACGUCGCAGCCCCUGUCAGAUUCUAGUGAAUCUGCGAAUUCUGCUGUAUAUCUC [C4A U25A G52A] belongs 0.54.
To UAAAAGAGGGCCACAGCAGAAGCGUUCACGUCGCAGCCCCUGUCAGAUUCCGUCGAAUCUGCGAAUUCUGCUGUAUAUCUC [C4A G7A U51C G53U U54C] belongs 0.07; to UAUCAGGGGGCCACAGCAGAAGCGUUCACGUCGCAGCCCCUGUCAGAUUCUGGCGAAUCUGCGAAUUCUGCUGUGUAUCUC [A3U U54C A75G], 1.01; to UAUCAGGGGGCCACAGCAGAAGCGUCCUCGUCGCAGCCCCUGUCAGAUUCUGGUGAAUCUGCGAAUUCUGCUGUAUAUCUC [A3U U26C A28U], 0.5.
With UAUCAGGGGGCCACAGCAGAAGCGUUCACGUCGCAGCCCCUGUCAGAUUCUGGCGAAUCUGCGAAUUCUGCUGCAUAUCCU [A3U U54C U74C U80C C81U] the figure was 1.25.
On to UAAAAGGGGCCCACAGCAGAAGCGUUCAGGUCGCAGCCCCUGUCAGAUUCUGGCGUAUCUGCGAAUUCUGCUGUAUAUCUC [C4A G10C C29G U54C A56U], for which the self-cleavage turned out to be 0.08.
Take UAAAAGGGGGCCACAGCAGAAGCGCUCACGUCGCAGCCCCUGACAGAUUCUGUUGAAUCUGCGAAUUCUGCUGUAUAUCUC [C4A U25C U43A G53U]: the self-cleavage was found to be 0.35.
With UAAAAGGGGGCCACAGCAGGAGCGAUCACGUCGCAGCCCCUGUCAGAUUCUGGUGAGUCUGCGAAUUCUGCUGUAUAUCUC [C4A A20G U25A A57G] the figure was 0.22; with UAAAAGGGGGCCACGGCAGAAGCGUUCACGUCGCAGCCCCUGUCAGAUUCUGGUGAAUCUGCGAAUUCUGCUGUAUGUCUC [C4A A15G A77G], 0.97.
To UAUCAGGGGGCCACAGCAGAAGCGUUCACGUCGCAGCCCCUGUCAGACUCUAGUGAAUCUGCGAAUUCUGUAGUAUAUCUC [A3U U48C G52A C71U U72A] belongs 0.62.
With UAAAAGGGGGUCACAGCAGAAGCGCUCACGUCGCAGCCCCCGUCAGAUUCUGGUGAAUCUGCGAAUCCUGCUGUAUAUCUC [C4A C11U U25C U41C U67C] the figure was 0.06; with UAUCAGGGGGCCACAGCAGAAGCGUUCACGUCGCAGCCCCAGUCAGAUUCUGGUGAAUCUGCGAUUCCUGCUGUAUACCUC [A3U U41A A65U U67C U78C], 0.13.
